According to PMC4336329 (PLoS ONE, 2015):
Hit rate of the full screen: of about 310,000 compounds, about 14,000 (4.5%) showed an effect of 50% or more. Effects have a minus sign here. Some of the results follow.

biological target: human ether-à-go-go-related gene (hERG) potassium channel (human, UniProt Q12809); assay: primary screen, population patch clamp on CHO cells stably expressing hERG
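Further: peak tail current of the secondary pulse compared with the same well before compound.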

Sequence of human ether-à-go-go-related gene (hERG) potassium channel (Q12809 whole entry, looked up): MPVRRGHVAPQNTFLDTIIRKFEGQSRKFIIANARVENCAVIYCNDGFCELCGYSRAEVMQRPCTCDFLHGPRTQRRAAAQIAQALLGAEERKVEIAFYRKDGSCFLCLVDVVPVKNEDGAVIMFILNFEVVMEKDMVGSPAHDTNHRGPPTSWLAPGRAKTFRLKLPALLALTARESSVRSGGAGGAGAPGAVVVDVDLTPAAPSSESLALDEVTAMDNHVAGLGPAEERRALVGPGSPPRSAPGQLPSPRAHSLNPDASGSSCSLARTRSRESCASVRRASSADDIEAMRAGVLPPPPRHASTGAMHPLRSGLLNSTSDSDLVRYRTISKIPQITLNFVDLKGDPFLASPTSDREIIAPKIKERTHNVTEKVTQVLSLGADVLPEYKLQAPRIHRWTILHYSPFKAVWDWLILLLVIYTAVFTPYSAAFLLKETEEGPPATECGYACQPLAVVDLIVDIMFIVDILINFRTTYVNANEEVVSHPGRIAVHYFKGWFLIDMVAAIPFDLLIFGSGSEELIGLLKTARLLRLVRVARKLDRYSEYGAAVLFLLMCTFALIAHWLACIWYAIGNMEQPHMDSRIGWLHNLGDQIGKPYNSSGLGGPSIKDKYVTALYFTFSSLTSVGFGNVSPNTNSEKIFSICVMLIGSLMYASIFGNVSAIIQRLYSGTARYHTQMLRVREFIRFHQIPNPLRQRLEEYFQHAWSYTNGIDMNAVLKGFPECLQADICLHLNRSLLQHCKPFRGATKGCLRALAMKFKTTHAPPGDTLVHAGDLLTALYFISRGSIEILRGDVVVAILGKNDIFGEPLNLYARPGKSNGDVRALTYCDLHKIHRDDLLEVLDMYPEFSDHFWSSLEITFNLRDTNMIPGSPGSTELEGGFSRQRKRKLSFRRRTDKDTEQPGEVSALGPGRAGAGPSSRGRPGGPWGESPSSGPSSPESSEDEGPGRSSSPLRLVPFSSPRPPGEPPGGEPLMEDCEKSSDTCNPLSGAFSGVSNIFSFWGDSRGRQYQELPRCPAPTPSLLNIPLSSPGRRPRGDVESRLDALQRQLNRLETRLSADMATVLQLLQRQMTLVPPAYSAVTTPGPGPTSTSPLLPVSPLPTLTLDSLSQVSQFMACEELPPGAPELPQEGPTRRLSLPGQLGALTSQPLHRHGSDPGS

| SMILES | hERG current change (%, negative = inhibition) at 10uM [%] |
| --- | --- |
| CN(C(=O)CCc1nnc(Cc2ccc(-c3ccccc3)cc2)o1)C1CCOCC1 | -22.1 |
| COc1ccc(CNC(=O)CCc2nnc3ccc(NCCCN4CCCC4=O)nn23)cc1 | 5.89 |
| O=C(NCCOc1ccccc1F)c1ccc2c(=O)n3c(nc2c1)CCC3 | -20.8 |
| COc1ccc(C2Nc3ccccc3C(=O)N2Cc2ccccc2)cc1 (stereo not shown) | 3.75 |
| O=C(Nc1ccccc1OC(F)F)c1ccc(F)cc1 | -13.3 |
| Cn1c(-c2ccccc2)c(/C=N/NC(=O)c2ccc(O)cc2)c2ccccc21 | 7.43 |
| CCOc1ccc(S(=O)(=O)N2CCC(C(=O)OCc3ccc(OC)cc3)CC2)cc1 | -24.7 |
| CC(NC(=O)C(=O)N1CCOCC1)C(c1cccs1)N1CCN(c2ccc(F)cc2)CC1 (stereo not shown) | -0.955 |
| CN1C(=O)C(=Cc2sc(=O)n(-c3ccccc3)c2N(C)C)C(=O)N(C)C1=O | -0.919 |
| CCNC(=O)NC(=O)CSc1ccc(NC(C)=O)cc1 | 11 |
| COc1ccc(C(=O)n2c(-c3ccco3)nc3ccccc32)cc1 | -28.4 |
| CC(C)(C)N(Cc1ccccc1)C(=O)COC(=O)[C@@H]1CCCN1C(=O)c1cccs1 | -2.57 |
| O=C(O)c1ccc(-c2nc(-c3ccccc3)cs2)cc1 | 18.3 |
| O=C(c1cnn2c(C(F)(F)F)cc(-c3ccccc3)nc12)N1CCOCC1 | 0.0897 |
| O=C(NCc1ccc(Cl)cc1)c1csc(-c2cccnc2)n1 | -37 |
| Cc1ccc(C2CC(=O)Oc3cc(O)ccc32)cc1 (stereo not shown) | -15.2 |
| O=C(N/N=C/c1ccccc1)c1[nH]ncc1Br | 24.6 |
| COc1cc2c(cc1OC)CN(C(=O)/C=C/c1ccccc1[N+](=O)[O-])CC2 | -6.27 |
| Cc1ccc(-n2c(SCC(N)=O)nnc2-c2cnccn2)cc1 | 22 |
| CCc1ccc2nc3sc(C(=O)Nc4nnc(CC)s4)c(N)c3cc2c1 | 14.3 |
| CC(C)(C)c1ccc(NC(=O)N2CCCN(c3ccc([N+](=O)[O-])cn3)CC2)cc1 | -25.9 |
| O=C1NC(=O)N(Cc2ccc(F)cc2)C(=O)/C1=C\c1ccc(N2CCCC2)cc1 | 11.8 |

| SMILES | hERG current change (%, negative = inhibition) at 10uM [%] |
| --- | --- |
| Cc1nc2ccccc2cc1OCc1ccc(Cl)cc1 | 15.3 |
| COc1cccc(C2CC(c3cccs3)=NN2C(=O)CSc2nc3ccccc3s2)c1OC (stereo not shown) | 13.1 |
| Cc1ccc(S(=O)(=O)N2CCC(=O)N(C(COCc3ccc(Cl)cc3)Cc3ccccc3)CC2)cc1 (stereo not shown) | 6.35 |
| Cc1ccc(C(C)C)cc1S(=O)(=O)NCc1cccnc1 | 2.11 |
| O=C(CN1CCCCCC1=O)N1CCN(S(=O)(=O)c2cccs2)CC1 | 16.1 |
| Cc1ccc2cc(CN(CC3CCCO3)C(=O)NC3CCCCC3)c(=O)[nH]c2c1C (stereo not shown) | -55.4 |
| Cc1ccc(C)c(NC(=O)Cn2cnc3c(oc4ccccc43)c2=O)c1 | 30 |
| COc1ccc(NC(=O)c2cc(OC)c(OC)cc2OC)c(S(=O)(=O)N2CCOCC2)c1 | 15 |
| O=C(CSc1ncnc2nc[nH]c12)Nc1nnc(SCc2ccc(Cl)c(Cl)c2)s1 | 11.8 |
| NC(=O)c1ccccc1N1CCCCC1 | 22.6 |
| CC1CN(C(=O)CCN2C(=O)c3ccccc3C2=O)CC(C)O1 (stereo not shown) | 1.96 |
| C1CCC2=NCCCN2CC1 | 1.88 |
| COc1ccc(C(=O)CSc2nnc(CC(=O)Nc3ccccc3OC)n2C)cc1 | -6.15 |
| Cc1cccn2c(=O)c3c(nc12)N1CCCCC1C1(C3)C(=O)N(C)C(=O)N(C)C1=O (stereo not shown) | -7.56 |
| CCN(C(=O)COC(=O)c1cc([N+](=O)[O-])ccc1N1CCOCC1)C1CCCCC1 | -33.5 |
| CN(C(=O)CSc1nncn1-c1ccccc1)C1CCS(=O)(=O)C1 (stereo not shown) | 4.65 |
| CC(=O)N(CC(C)(C)CC=C(C)C)c1ccccc1 | 9.08 |
| O=C(O)CN1C(=O)C(=O)N(Cc2c(F)cccc2Cl)C1=O | 9.71 |
| CSCCC(NS(=O)(=O)c1ccccc1F)C(=O)NNC(=O)c1csc(N2CCOCC2)n1 (stereo not shown) | 12.1 |
| COC(=O)c1sccc1NC(=O)c1ccccc1 | 12.3 |
| O=C(O)c1nn(CC(=O)N2CCN(c3ccccc3)CC2)c(=O)c2ccccc12 | 8.36 |
| O=C(Nc1ccccc1)C(Cc1cccs1)c1nn[nH]n1 (stereo not shown) | -0.965 |

| SMILES | hERG current change (%, negative = inhibition) at 10uM [%] |
| --- | --- |
| CCc1nnc(NC(=O)c2ccc(NS(=O)(=O)c3ccccc3)cc2)s1 | -6.56 |
| CC12CC(NC(=O)N1CCc1ccccc1)c1cc(Cl)ccc1O2 (stereo not shown) | 14.4 |
| Cc1cc(C)nc(SCCS(=O)(=O)Cc2ccc(Cl)cc2)n1 | 0.643 |
| CCOC(=O)C1=CSC2=NS(=O)(=O)CCN12 | 7.89 |
| CN(C)CCCN(C(=O)c1cccs1)c1nc(-c2ccccc2)cs1 | -72.8 |
| O=C(O)C1CCCN1S(=O)(=O)c1ccc2[nH]c(=O)c(=O)[nH]c2c1 (stereo not shown) | 9.17 |
| O=C(CSc1nnc(CNc2ccccc2)o1)N1CCN(C(=O)c2ccco2)CC1 | -17.3 |
| CCOC(=O)N1CCC(N(CCOC)C(=O)Nc2ccc(Cl)cc2)CC1 | -43 |
| NC(=O)N1c2ccccc2C=Cc2ccccc21 | 6.93 |
| CCN(CC)CC(C)CNC(=O)CC(C(=O)N1CCc2ccccc21)n1ccnc1 (stereo not shown) | 2.03 |
| COc1ccc(C(CC(=O)N2CCCCC2)c2c(OC)cc(OC)c3c(-c4ccccc4)cc(=O)oc23)cc1 (stereo not shown) | 0.849 |
| COC(=O)c1cc(C(=O)OCC(=O)N(C)c2ccccc2)cc([N+](=O)[O-])c1 | -19.5 |
| COc1ccc(N2CCN(c3oc(-c4ccco4)nc3C#N)CC2)cc1 | -47.9 |
| Cc1ccc(N(CCC#N)C(=O)COC(=O)C2=COCCO2)cc1 | 2.46 |
| Cc1ccc(-c2nc3ccccn3c2NC(=O)c2ccco2)cc1 | -12 |
| Cc1ccc(S(=O)(=O)N2C(=O)CCC2C(=O)N2CCN(C)CC2)cc1 (stereo not shown) | 0.859 |
| CCc1ccc(C(C)NC(=O)/C(C#N)=C\c2cn[nH]c2-c2ccccc2)cc1 (stereo not shown) | -1.91 |
| Cc1cc(NC(=O)CSc2nnc(-c3ccc(Cl)s3)o2)no1 | 5.01 |
| O=C(NS(=O)(=O)Oc1cccc(F)c1)OC[C@@H]1CCCN2CCCCC12 (stereo partly shown) | 15.7 |
| COc1ccc(C(=O)O/N=C(/c2ccccc2)c2ccncc2)cc1 | 29.8 |
| Nc1ccc(NC(=O)CCN2CCOCC2)cc1 | 9.85 |
| COc1ccc(C(=O)NCC(=O)N2CCCC(C)C2)cc1OC (stereo not shown) | 12.6 |

| SMILES | hERG current change (%, negative = inhibition) at 10uM [%] |
| --- | --- |
| O=C(NCc1ccco1)c1ccccc1Br | 7.63 |
| O=C(Nc1nccs1)C1CCN(S(=O)(=O)c2c(Cl)cccc2Cl)CC1 | -22.1 |
| O=C(c1ccc([N+](=O)[O-])cc1)N(Cc1ccccc1)c1ccccn1 | 3.04 |
| Cc1ccc(OCC(=O)N/N=C\c2cccn2C)c([N+](=O)[O-])c1 | -8.65 |
| Cc1ccc2c(c1)c1c(n2CC(O)CNC(CO)(CO)CO)CCCC1 (stereo not shown) | 0.531 |
| COC(=O)N/N=C/c1cc(Cl)c(OCc2ccccc2F)c(OC)c1 | 6.02 |
| Cc1nc([N+](=O)[O-])c(Br)n1CC(=O)c1ccc(Cl)cc1 | -18 |
| CC(C)(C)C(=O)NC(=S)Nc1cc(C(F)(F)F)ccc1N1CCOCC1 | -1.98 |
| CC1CCC(NC(=O)c2cc(S(=O)(=O)N3CCCCC3)c[nH]2)CC1 (stereo not shown) | -9.4 |
| O=C(c1cc(-c2ccc(Cl)cc2)n(-c2ccc(Cl)cc2Cl)n1)N1CCOCC1 | -79.6 |
| Cc1cc(NS(=O)(=O)c2ccc(NC(=O)c3cc4cc(Br)ccc4oc3=O)cc2)no1 | 6.17 |
| O=C(O)C1C(C(=O)Nc2ccc(Cl)cc2)C2C=CC1C21CC1 (stereo not shown) | 7.32 |
| NS(=O)(=O)c1ccc(N=Nc2ccc(=O)[nH]c2O)cc1 | 18.4 |
| Cc1ccc(S(=O)(=O)Nc2ccc3c(c2)CCC3)cc1C | -3.9 |
| CCN(CC)S(=O)(=O)c1ccc(C(=O)NCc2ccc3[nH]c4c(c3c2)CCCC4)cc1 | 15.3 |
| Cc1ccn2c(-c3n[nH]c(=S)n3Cc3ccccc3)c(C)nc2c1 | 5.92 |
| CC(C)C(=O)Nc1ccccc1Cc1ccccc1 | 13 |
| COc1ccc(N(Cc2cc(=O)[nH]c3ccccc23)C(=O)CCl)cc1 | 5.27 |
| COc1cc(OC)c(S(=O)(=O)NC(C)C)cc1C(=O)O | 4.39 |
| C=CCn1cc(C(=O)NCCCOC)c(=O)c2cc(S(=O)(=O)N3CCC(C)CC3)ccc21 | -32.9 |
| CC1(C)CC(=O)C(Sc2nnc(-c3ccc(NS(C)(=O)=O)cc3)n2Cc2ccco2)C(=O)C1 | 19.5 |
| Cn1nc2c3ccccc3n(Cc3ccc(F)cc3)c2nc1=S | -2.76 |
